# Test results from PubChem BioAssay AID686978 (National Center for Advancing Translational Sciences (NCATS), 2013).
# In all, about 420,000 compounds went through this assay and about 64,000 (15%) were called active. The shares of active, inactive and inconclusive entries below differ from those in the screen. The call rests on the fitted dose curve; in most records, active means well fitted inhibition curve with a large enough effect; inconclusive means small, poorly fitted or top-dose-only effect; inactive means flat fitted curve, though single readings scatter. Potencies of inconclusive entries are left out as doubtful fits.
# Experiment: qHTS for Inhibitors of human tyrosyl-DNA phosphodiesterase 1 (TDP1): qHTS in cells in absence of CPT; further: nearly all actives have a fitted effect of over 55% in size
# Conditions: DT40 Tdp1-/- hTDP1 cells, no CPT, ATP luminescence, 48 h; series mostly up to 46.2 µM
# Summary of the method: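 Compound effects on proliferation are scored in DT40 Tdp1-/-;hTDP1 cells in the absence of CPT. ATP levels (CellTiter-Glo luminescence) are recorded after a ≥48 hr, 37 °C incubation.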
# Potency means the concentration at half of the fitted maximal effect; tags describe the fitted curve by direction and shape.
row,SMILES,Potency
1,CCOc1ccc(-c2cncc3nccn23)cc1,inactive
2,COc1ccc(S(=O)(=O)N(Cc2cc3ccc(OC)cc3[nH]c2=O)CC2COCCO2)cc1 (stereo unspecified),"inconclusive [inhibitor, partial curve, poor fit]"
3,COc1ccc(Oc2ncc3nc(-c4ccc(F)cc4)c(=O)n(C[C@H]4CCCO4)c3n2)cc1,inactive
4,Cc1c(Nc2nc3ccccc3n3cnnc23)cccc1[N+](=O)[O-],inactive
5,CCN1CCN(CCCNC(=O)c2ccccc2NC(=O)C2=C(C)OCCS2)CC1,inactive
6,Cc1cc(C)cc(Nc2nnc(-n3nc(C)cc3C)c3ccccc23)c1,"inconclusive [inhibitor, single point]"
7,C[C@H](CO)N1C[C@H](C)[C@@H](CN(C)C(=O)Nc2ccc(C(F)(F)F)cc2)Oc2c(NS(=O)(=O)c3cn(C)cn3)cccc2C1=O,inactive
8,c1ccc(Cn2nnc3c(N4CCCCC4)ncnc32)cc1,active: 8.91 µM
9,COc1ccc(-c2nc3cc(C)c(Br)c(C)n3c2Cc2ccccc2C(F)(F)F)cc1OC,"inconclusive [inhibitor, single point]"
10,CS(=O)(=O)Nc1nc2ccccc2[nH]1,inactive
11,CC[C@H](C)[C@@H](NC(=O)O[C@@H]1C(=O)c2cc(Br)ccc2O[C@H]1c1cccc(OC)c1)C(=O)OC,"inconclusive [inhibitor, single point]"
12,CS(=O)(=O)Nc1ccccc1-c1ccc2nccn2c1,inactive
13,CS(=O)(=O)N1CCN(c2nc(-c3ccc(F)cc3)cs2)CC1,"inconclusive [inhibitor, single point]"
14,Cc1cccc(-n2nnnc2SCc2csc(-c3ccccc3)n2)c1,"inconclusive [inhibitor, partial curve]"
15,CCN(C(=O)COc1cc(=O)n(CC)c2ccccc12)c1cccc(Cl)c1,"inconclusive [inhibitor, single point]"
16,CC1Nc2ncnc(N3CCOCC3)c2N(Cc2ccccc2)C1=O (stereo unspecified),inactive
17,CC(CNC(=O)CN1C(=O)NC2(CCCCC2C)C1=O)c1ccccc1 (stereo unspecified),inactive
18,COC(=O)C12CCC(C)(c3nc4ccccc4nc31)C2(C)C (stereo unspecified),"inconclusive [inhibitor, partial curve]"
19,CC1=CC(=O)C2=C(C)C[C@H](OC(=O)Cc3ccccc3)C3[C@H](OC(=O)[C@H]3C)C12 (stereo partly specified),"inconclusive [inhibitor, single point]"
20,CCCOc1ccc(NC(=O)CC2C(=O)N(c3ccc(Cl)cc3)C(=O)N2CCc2ccncc2)cc1 (stereo unspecified),active: 25.9 µM
21,CC(C)(C)OC(=O)N1CCc2onc(-c3ccccc3F)c2C1=O,inactive
22,CC(C(=O)O)n1cc(C#N)c(=O)[nH]c1=O (stereo unspecified),inactive
23,CCN1C(=O)[C@H]2[C@@H](c3ccc(C)cc3)N3C(=O)N(c4ccc(C(F)(F)F)cc4)C(=O)[C@@]3(Cc3ccccc3)[C@H]2C1=O,"inconclusive [inhibitor, single point]"
24,Cc1cccc(OCC(=O)Nc2ccc(Cl)c(-c3nc4ccccc4[nH]3)c2)c1,"inconclusive [inhibitor, single point]"

row,SMILES,Potency
1,COc1ccc(N2CCCn3c2nc2c3c(=O)n(Cc3ccccc3F)c(=O)n2C)c(OC)c1,inactive
2,CCc1ccc(N(C(=O)c2ccco2)C(C(=O)NC2CCCC2)c2ccncc2)cc1 (stereo unspecified),"inconclusive [inhibitor, single point]"
3,CC(CNCC1CCCO1)COc1cccc2ccccc12 (stereo unspecified),"inconclusive [inhibitor, single point]"
4,NS(=O)(=O)c1ccc(NC(=S)NCCc2ccccc2)cc1,"inconclusive [inhibitor, partial curve, poor fit]"
5,CCN1CCN(Cc2c(O)ccc3oc(C)c(C(=O)Nc4ccc(C)cc4C)c23)CC1,"inconclusive [inhibitor, single point]"
6,COc1cc2cnc(-c3ccccc3F)cc2cc1OC,"inconclusive [inhibitor, single point]"
7,COc1ccc(C(=O)C2CCCN(C(=O)c3noc4c3CCCC4)C2)c(C)c1 (stereo unspecified),active: 20.6 µM
8,O=C(O)/C=C\C(=O)NCc1cccnc1,"inconclusive [inhibitor, full curve, poor fit]"
9,Cc1ccc(C(=O)Nc2ccc(S(=O)(=O)N3CCCC3)cc2)s1,"inconclusive [inhibitor, single point]"
10,NNC(=S)Nc1cccc(-c2n[nH]c(=S)o2)c1,inactive
11,CCn1c(=N)n(CC(=O)c2cccc(OC)c2)c2ccccc21,"inconclusive [inhibitor, single point]"
12,CCN(CC(=O)Nc1c(C(=O)OC)[nH]c2ccc(Cl)cc12)c1ccc2c(c1)OCO2,active: 25.9 µM
13,Cn1c(OCc2ccc3c(c2)OCO3)nc2c1c(=O)n(Cc1ccc(Cl)c(Cl)c1)c(=O)n2C,"inconclusive [inhibitor, single point]"
14,C=C1CC[C@@H]2O[C@@]2(C)CC[C@H]2[C@H]1CC2(C)C,inactive
15,Cc1ccc(C)c(NC(=O)NNC(=O)c2ccc3ccccc3c2O)c1,inactive
16,Cc1c(NC(=O)CSc2n[nH]c(=O)n2-c2ccccc2)c(=O)n(-c2ccccc2)n1C,"inconclusive [inhibitor, single point]"
17,COc1ccc(-c2[nH]ncc2/C=C(\C#N)C(=O)NC2CC2)cc1,"inconclusive [inhibitor, single point]"
18,C=C(C)c1nc2cc(OC)c(OC)cc2c(=O)o1,"inconclusive [inhibitor, single point]"
19,CC1(C(=O)Nc2cccc(Oc3ccccc3)c2)Cc2c(-c3ccccc3)ccnc2O1 (stereo unspecified),"inconclusive [inhibitor, single point]"
20,O=C1CC(c2nnc(Cc3ccccc3Cl)o2)CN1c1ccccc1 (stereo unspecified),inactive
21,CCN(C(=O)COC(=O)CCCOc1ccc(Cl)cc1C)c1c(N)n(Cc2ccccc2)c(=O)[nH]c1=O,active: 16.4 µM
22,CN(C)c1nc(OCCOC(=O)c2ccccc2)nc(N(C)C)n1,"inconclusive [inhibitor, partial curve, poor fit]"
23,COc1ccccc1Cc1c(C(C)(C)C)nc2c3ccccc3ccn12,active: 2.59 µM
24,CCOC(=O)c1cccc(C2=CC(=O)C[C@H](c3ccc(Cl)cc3)C2)c1,"inconclusive [inhibitor, partial curve]"

row,SMILES,Potency
1,Oc1ccc(Cl)cc1CNCC1CCCCC1,"inconclusive [inhibitor, single point]"
2,c1ccc(C2[C@H]3CN(CC4CCCCC4)[C@H](c4ccccc4)C34CC2(c2cccnc2)C4)cc1 (stereo partly specified),active: 18.4 µM
3,COc1ccc(NC(=O)Cn2cc(C(=O)c3ccco3)c3ccccc32)cc1,"inconclusive [inhibitor, partial curve]"
4,Cc1cccc(C(=O)N2CCCC(c3nc(-c4ccc(F)cc4)no3)C2)c1 (stereo unspecified),"inconclusive [inhibitor, single point]"
5,O=S1(=O)C=C(SCCN2CCCCC2)c2ccccc21,inactive
6,OC(COCc1ccc(Cl)cc1)CN1CCN(c2ccccn2)CC1 (stereo unspecified),"inconclusive [inhibitor, partial curve, poor fit]"
7,Cc1ccc2nc(-c3cccc(Br)c3)cc(C(=O)NC3=NCCS3)c2c1,"inconclusive [inhibitor, single point]"
8,Cc1ccc(S(=O)(=O)N(C)c2nc3ccccc3n3c(C(C)C)nnc23)cc1,"inconclusive [inhibitor, single point]"
9,O=C(NCc1ccco1)C(c1ccncc1)N(C(=O)Cc1cccs1)c1ccccc1 (stereo unspecified),inactive
10,CC(OC(=O)CSc1ccc(F)cc1)C(=O)NC1(C#N)CCCCC1 (stereo unspecified),inactive
11,CNc1nc(-c2ccccc2)cc(-c2ccccc2)n1,inactive
12,CC(C)=CCNc1ncnc2c1c(C#N)cn2C1OC(CO)C(O)C1O (stereo unspecified),active: 4.11 µM
13,CCOC(=O)c1ccc(CN(Cc2ccccc2C)S(=O)(=O)c2ccc(F)c(C(=O)Nc3cccc(OC)c3)c2)cc1,inactive
14,CCn1nc(NC(=O)c2ccccn2)c2cc3cccc(C)c3nc21,active: 18.4 µM
15,N#CCCN(C(=O)COC(=O)CCc1nc2ccccc2c(=O)[nH]1)c1ccccc1F,inactive
16,COc1ccc(NC(=O)c2oc3ccccc3c2NC(=O)Cc2cccs2)cc1,"inconclusive [inhibitor, single point]"
17,Cc1c(NC(=O)COC(=O)c2cc(-c3cccc4ccccc34)nc3ccccc23)c(=O)n(-c2ccccc2)n1C,inactive
18,O=C(CN1C(=O)CSc2ccc(S(=O)(=O)N3CCCC3)cc21)NCc1ccc(Cl)cc1,"inconclusive [inhibitor, single point]"
19,CC(C)(C)OC(=O)N1CCC(NC(=O)c2[nH]cnc2C(=O)Nc2ccccc2)CC1,"inconclusive [inhibitor, single point]"
20,COc1ccc(NC(=O)CN2C(=O)COc3ccc(S(=O)(=O)N4CCCCC4)cc32)cc1Cl,active: 14.6 µM
21,Cc1cc(OCc2cccc(Cl)c2)c(C)cc1CN1CCOCC1,"inconclusive [inhibitor, single point]"
22,N#CCCSc1nc(N2CCOCC2)c2c(c1C#N)CCCC2,"inconclusive [inhibitor, partial curve]"
23,COc1ccccc1-n1cc(C(=O)NCC(=O)N2CCN(Cc3ccccc3)CC2)c2ccccc2c1=O,"inconclusive [inhibitor, single point]"
